{"source": "paper PMC12136788", "binders": {"B1": {"name": "chr2:232320318:232320319:-_ENSG00000115053_ENST00000322723|hu_hu|hu_hu_hu_mus_True|58_108 (ssRNA)", "RNA": "GGGAGUUCUACAGUCCGACGAUCACUGUUGAAGUCUACAAAACCAAACCCUUUGGAAGAACCAGUUUCCCGAUCAGUAACUAUCCUUGCACGAACAGAGCCCUCAAAUGAUUCUUUUAAGGUCUCUUCAGUGGUAUCCUCAGACAACAGAGGAUUGAGCAUCA"}, "B2": {"name": "chr16:94914985:94914986:+_ENSMUSG00000022897_ENSMUST00000023614|mus_hu|FALSE|FALSE (ssRNA)", "RNA": "GGGAGUUCUACAGUCCGACGAUCGUGAGGCAAAAAAGCAGUCACAUAAAAUUCUGCAUUUUUUAAAAAUGUUCAGGAUGAACAGAAGACAUCUUUGUGCAGAAGAAAUGGUGGAGAUACCACGUGCCGAGAAAAAGCAAAAGACAACAGAGGAUUGAGCAUCA"}, "B3": {"name": "42743488_42743608_1179_3pUTR_ENSG00000103994_ENST00000263805|human|control|control (ssRNA)", "RNA": "GGGAGUUCUACAGUCCGACGAUCAUCACUUGUAAAUCCUUCAGAAGGACCUCUAUAUGUGGCAACUGUACCAAGUUUGUCAUUUUCUUGCCGCUGCCAAUUAUAUCUGUCGUGACUGUAUUUGUUUGACUUAUUAGAUUUCUUCAACAGAGGAUUGAGCAUCA"}, "B4": {"name": "chr11:46405157:46405158:+_ENSG00000110492_ENST00000395566|hu_hu|hu_hu_hu_mus_False|28_58 (ssRNA)", "RNA": "GGGAGUUCUACAGUCCGACGAUCCCCUCCCCACUUUGGGCACUUGGUGUGGGCGUGAGAGGACAGGCGUGAUUGACAAAGCUAACGGGAAGACAAAAGGCACUGGUGGGUCACAUCUUGGGCCUGUGGGAGAGGAGGGCUCCGCAACAGAGGAUUGAGCAUCA"}, "B5": {"name": "chr9:48874791:48874792:+_ENSMUSG00000032264_ENSMUST00000034803|mus_mus|FALSE|FALSE (ssRNA)", "RNA": "GGGAGUUCUACAGUCCGACGAUCAAGCAUCUCAGCCAACACGAUCCCAGGGACUUUUCCAAUUUCUAGGUCAGCAUCAAGAGGCAAAUCUAGAAGCUGUUUCUGGAGCACUUCCAGGACCAAUCGGAUCUUUGCAAAAGCUUCCAACAGAGGAUUGAGCAUCA"}, "B6": {"name": "chr2:10924439:10924440:-_ENSG00000143870_ENST00000272227|hu_mus|FALSE|FALSE (ssRNA)", "RNA": "GGGAGUUCUACAGUCCGACGAUCUCGCUCCCAAGGAAAGCCCAAGGAAGGCUGGGCCGUGGCUCACAACUCAUCCUUCUCCAGGUCAUCCAGCUCCACGUCACUGAGGUCAAUGUCGUCCUCCACAGGGAGCUCACCAUCCUUCAACAGAGGAUUGAGCAUCA"}, "B7": {"name": "15936781_15936901_1503_3pUTR_ENSG00000183580_ENST00000504595|human|control|control (ssRNA)", "RNA": "GGGAGUUCUACAGUCCGACGAUCCCGCAGUGCGCGAUGCUCAGGUACCGCAGGCGGGACUCCAGCUUGGCGAUCUCCCGCAGGCCGAAGUCGCUGACGAAGCGGCAGUCGCUGACGCUCAGCUCCUUGAUGGAGGCGCAGUAGCAACAGAGGAUUGAGCAUCA"}, "B8": {"name": "chr2:216981417:216981418:+_ENSG00000079246_ENST00000392132|hu_hu|hu_hu_hu_mus_True|8_108 (ssRNA)", "RNA": "GGGAGUUCUACAGUCCGACGAUCCUGAUACUGAUCCUUGCCAGCAAGGGCAUUAUCAGUGCCAUCUGUGCCAUAGAGGACUAACGCAAUCUCAUCUUUGCUCUCCGAAAAUACCUGUCGUUGGACAAACAUGGUUAUCACUUUCAACAGAGGAUUGAGCAUCA"}, "B9": {"name": "11971335_11976889_1083_CDS_ENSG00000103342_ENST00000563468|human|control|control (ssRNA)", "RNA": "GGGAGUUCUACAGUCCGACGAUCCUCUUCUUCAAUUCCUUUCAGUCUGAUUUUGAGGUUUUCACCUGGGGCUACGGUAUCAGUCUCUACAUCAUCGGAAAGUAUUCCAAGAACUUCCACGUUGUGCUUGUUUGGCAUCAUCACCAACAGAGGAUUGAGCAUCA"}, "B10": {"name": "chr1:174017691:174017692:+_ENSMUSG00000026553_ENSMUST00000135192|mus_mus|motif|central (ssRNA)", "RNA": "GGGAGUUCUACAGUCCGACGAUCAACUGGAUGACCCCAUUGUGUAAACUGGUCAGGAUCCAGGGUCUUUUAGGAUGAAAACGGAGGCCUUUGACCCGCGCGCUCUUCGUCUCGAAUUUGGUUAGCAUCCUUCAGGCCUCGGGCCAACAGAGGAUUGAGCAUCA"}, "B11": {"name": "chr1:39494564:39494565:+_ENSG00000168653_ENST00000372967|hu_hu|hu_hu_hu_mus_True|88_98 (ssRNA)", "RNA": "GGGAGUUCUACAGUCCGACGAUCAUGCAUUCGCCUCAUCGUUUUCUGCCGAAGCAAGCACUCUUCGAAGUCAUCGAACUCUAUCUUGCACUCCUUUUUCGCCCGGGUCCCACCGAUCCCGUGUGCACACUCUAUCCACUCUUUCAACAGAGGAUUGAGCAUCA"}, "B12": {"name": "130643178_130643298_725_CDS_ENSMUSG00000030757_ENSMUST00000042470|mouse|control|control (ssRNA)", "RNA": "GGGAGUUCUACAGUCCGACGAUCAAUCUUCUCAGGCAGAAUGGUGAGAAACUGUUCGAUUACCAGCUGCUCGAGGAUCUGUUCCUUGGAACGCAUUUCUGGCUUCAGCCACCGACAGCAGAGUUCCCAGAGUUUACUGAAAGCCAACAGAGGAUUGAGCAUCA"}, "B13": {"name": "chr16:45382771:45382772:-_ENSMUSG00000022661_ENSMUST00000163230|mus_mus|mus_mus_mus_hu_True|1_88 (ssRNA)", "RNA": "GGGAGUUCUACAGUCCGACGAUCCUGGGUCAUGUUAUAAGACAAAUGGAUAGGGAGGGCAUGCUUCUCAAAAAAUGUGAGCUAUUGUCUAAGACUAACAAUAUUUAUCUAGCUAUAAAAAUAAGUUAAAUGAAUAAACAUUACCAACAGAGGAUUGAGCAUCA"}, "B14": {"name": "chr18:35731649:35731650:+_ENSMUSG00000037236_ENSMUST00000166793|perfect_dup|motif|central (ssRNA)", "RNA": "GGGAGUUCUACAGUCCGACGAUCCCCUACUGAGAGAUGACUGCUGGAAUGACUUGGACAUUGUAGAACUAGCUCUUGUCGGUUUUAUAGAUUAAAAAAAAAAAUUUUUUUAAAGACGGCCAAAAAGAAAGCUCAAACUAGAAACAACAGAGGAUUGAGCAUCA"}, "B15": {"name": "chr16:29586362:29586363:+_ENSMUSG00000038084_ENSMUST00000160597|mus_mus|motif|central (ssRNA)", "RNA": "GGGAGUUCUACAGUCCGACGAUCGCCACCUCCAACAGCAGAUCCCAGUAUGAUAUAUCGAAGUUUUAAGAGUCUUGCAGCGGACCUUGCUGGCCAAAAGUUCCUGCGGGGCUGGUAGCCAUAUUUAAUUGGAGAAAGUUUCAACAACAGAGGAUUGAGCAUCA"}, "B16": {"name": "108360981_108361101_1165_3pUTR_ENSMUSG00000068732_ENSMUST00000090546|mouse|control|control (ssRNA)", "RNA": "GGGAGUUCUACAGUCCGACGAUCUUGAGAAAUCCCUCAGGCUGCCAGCAUGUGGCAAUCUGUUCUCUCUGCAGAACCACCCUCUCUCAAGUUCCCAGAUGCACAGAAAGAACACACUCCAACAGCCAAACAAUUGUUUCGCCUCAACAGAGGAUUGAGCAUCA"}, "B17": {"name": "109530411_109530531_484_CDS_ENSG00000189046_ENST00000429722|human|control|control (ssRNA)", "RNA": "GGGAGUUCUACAGUCCGACGAUCAAUGUGCCGCCAGCUAGGGCCUGCUGAGUGGCCUCCAUUCCCUGGGGCCUCUCUCCUGGGCCUCUUCCUUGUGCUUUCUUUGUCUCCUCCCAACACAGCUGGCUCUUCUCCAGUUGGCUCCAACAGAGGAUUGAGCAUCA"}, "B18": {"name": "chr14:72968675:72968676:-_ENSMUSG00000033487_ENSMUST00000089017|mus_hu|FALSE|FALSE (ssRNA)", "RNA": "GGGAGUUCUACAGUCCGACGAUCAUAUAAGACUUCUUCACUAAAACCACUUGUACCAUAGUCAUUUCUGGCCGAUAGUCUGAAUUUACAGCCCAUUGCUGGUGAAAGUUUAGUAAUUUUAAAUUGUUUCUGUGAGCCCAUGUACAACAGAGGAUUGAGCAUCA"}, "B19": {"name": "chr4:156296975:156296976:-_ENSG00000164114_ENST00000311277|hu_hu|motif|central (ssRNA)", "RNA": "GGGAGUUCUACAGUCCGACGAUCUCCUGGAAAGUAGUUCUUUUGGUAACUUUUGGACUCUUUGUAUAUGCCAAAGUGGUGCGGAAAACUUCAUCAGACAUAGUGUAUUUUUUCUCGUUACCUUUAUAAAAUAGCUAAUUAUUACAACAGAGGAUUGAGCAUCA"}, "B20": {"name": "chr1:184392483:184392484:+_ENSMUSG00000026510_ENSMUST00000117245|mus_mus|FALSE|FALSE (ssRNA)", "RNA": "GGGAGUUCUACAGUCCGACGAUCCAUUUUUAAAACCAGCUAUGAUCUUGACAAAUACAGGUAAAUCUAUAACAAAUCUCUAAUUUCCAAGAUACAAAAAGACAAUAAAUAUAGAUUCAAAUUCAAUCUAAAAACAAGAUUCUACAACAGAGGAUUGAGCAUCA"}, "B21": {"name": "chr3:105482444:105482445:-_ENSMUSG00000027905_ENSMUST00000090680|mus_hu|FALSE|FALSE (ssRNA)", "RNA": "GGGAGUUCUACAGUCCGACGAUCCACAGGAAGCUUUUGUUUGGUAUUAUUUUUUGAUUUGACUGAUAGUCCAGAUACAGAAUUAUUUCUAGAGGAAGCCAUGUGGUCACCAUGAGCUUUCUGAAUUUGAAGGGUUCUCUCUAUCAACAGAGGAUUGAGCAUCA"}, "B22": {"name": "88064226_88064346_215_3pUTR_ENSMUSG00000021257_ENSMUST00000021682|mouse|control|control (ssRNA)", "RNA": "GGGAGUUCUACAGUCCGACGAUCUCCACCCUUCUUCUCGCCACUGCUGCAGCAGGCCCUCACACUCUUCUUGGUCAGGCCCCCGAGGGGCCAUGGCAAAGUUACCCUCUACCUGGGGAGAUGAGCUCUUCGCCAGAAGGGCAUCAACAGAGGAUUGAGCAUCA"}}, "note": "This is one part of the list."}
{"biological_target": "T1, UNK ZnF1-3 (human, UniProt Q9C0B0 31-174)", "T1 sequence": "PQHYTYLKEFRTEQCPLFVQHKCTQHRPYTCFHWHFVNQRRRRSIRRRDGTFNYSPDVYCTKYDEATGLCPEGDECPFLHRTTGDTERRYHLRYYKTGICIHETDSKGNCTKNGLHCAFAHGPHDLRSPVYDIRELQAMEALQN", "assay": "nsRBNS (natural sequence RNA bind-n-seq); RBNS binding buffer (assumed for nsRBNS): 25 mM Tris pH 7.5, 150 mM KCl, 3 mM MgCl2, 0.01% Triton X-100, 500 ug/ml BSA, 20 U/ml SUPERase-In, 4 C; UNK is unkempt and MSI1 is Musashi-1; names of the RNAs are library labels; protein concentration not given here; high values mean tight binding", "units": {"binding signal": "enrichment R"}}
{"binder": "B1", "binding signal": 0.623}
{"binder": "B2", "binding signal": 1.33}
{"binder": "B3", "binding signal": 0.408}
{"binder": "B4", "binding signal": 2.37}
{"binder": "B5", "binding signal": 1.61}
{"binder": "B6", "binding signal": 0.859}
{"binder": "B7", "binding signal": 1.06}
{"binder": "B8", "binding signal": 0.663}
{"binder": "B9", "binding signal": 0.614}
{"binder": "B10", "binding signal": 0.928}
{"binder": "B11", "binding signal": 0.574}
{"binder": "B12", "binding signal": 1.41}
{"binder": "B13", "binding signal": 2.4}
{"binder": "B14", "binding signal": 2.32}
{"binder": "B15", "binding signal": 1.66}
{"binder": "B16", "binding signal": 0.666}
{"binder": "B17", "binding signal": 0.511}
{"binder": "B18", "binding signal": 0.872}
{"binder": "B19", "binding signal": 0.992}
{"binder": "B20", "binding signal": 0.514}
{"binder": "B21", "binding signal": 0.826}
{"binder": "B22", "binding signal": 1.11}
